From the supplement of paper PMC8285479
Structures can show the parent of a compound that is named as a salt. ± gives the standard deviation of the averaged measurements. Over roughly 1,900 compounds, “normalised cell viability (NPI; 0 = phenylarsine oxide control, 1 = DMSO control)” has its median near 1; the lowest 2% begin near 0.039. This is one part of the list.

Test system: NCI-H1944
Assay: normalised cell viability (NPI; 0 = phenylarsine oxide control, 1 = DMSO control) (fraction of DMSO control); NCI-H1944 is a non-small cell lung cancer line; higher = more viable cells (less compound toxicity)
Conditions: 6 days
[1] = glucocorticoid arm: hydrocortisone 2.75 uM co-treatment, compound 1 µM
[2] = glucocorticoid arm: hydrocortisone 2.75 uM co-treatment, compound 5 µM
[3] = glucocorticoid arm: hydrocortisone 2.75 uM pre-treated 2 days and continued, compound 1 µM
[4] = glucocorticoid arm: hydrocortisone 2.75 uM pre-treated 2 days and continued, compound 5 µM
[5] = glucocorticoid arm: vehicle, compound 1 µM
[6] = glucocorticoid arm: vehicle, compound 5 µM
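Further: CTB read-out in 384-well plates, mean of triplicate wells, normalised per plate against 1 µM phenylarsine oxide and 0.1% DMSO, compounds added 24 h after seeding.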

Row | SMILES | normalised cell viability [1] | normalised cell viability [2] | normalised cell viability [3] | normalised cell viability [4] | normalised cell viability [5] | normalised cell viability [6]
1 | CNC(=O)[C@H]1O[C@@H](n2cnc3c(NCc4ccc(N)cc4)ncnc32)[C@H](O)[C@@H]1O | 1.01 ± 0.012 | 0.9953 ± 0.0081 | 0.997 ± 0.003 | 1 | 0.9873 ± 0.0091 | 1.001 ± 0.0085
2 | COc1cc2c(cc1O)CC[C@@H]1[C@@H]2CC[C@]2(C)[C@@H](O)CC[C@@H]12 [2-Methoxyestradiol (2-MeOE2)] | 0.9837 ± 0.0055 | 1.05 ± 0.011 | 0.969 ± 0.015 | 1 | 0.9883 ± 0.0046 | 0.476 ± 0.081
3 | COc1cc2c(cc1O)CC[C@@H]1[C@@H]2CC[C@]2(C)[C@@H](O)CC[C@@H]12 [2-methoxyestradiol] | 1.003 ± 0.0058 | 0.419 ± 0.045 | 1 ± 0.015 | 1.12 ± 0.076 | 0.9977 ± 0.0025 | 0.131 ± 0.009
4 | COC(=O)C1=C(C)NC(C)=C(C(=O)OC)C1c1ccccc1[N+](=O)[O-] [Nifedipine] | 1.01 ± 0.01 | 0.993 ± 0.018 | 1.013 ± 0.0058 | 0.884 ± 0.26 | 0.9983 ± 0.0029 | 1.01 ± 0.018
5 | COc1cc2c(CCNC(C)=O)c[nH]c2cc1O [6-Hydroxymelatonin] | 1.002 ± 0.0074 | 0.988 ± 0.01 | 1 ± 0.013 | 1 ± 0.013 | 1 ± 0.01 | 0.992 ± 0.0053
6 | CC(=O)NCC(=O)N1[C@@H]2CC[C@H]1c1ccc(Nc3ncc(C(F)(F)F)c(NC4CCC4)n3)cc12 | 0.712 ± 0.0091 | 0.552 ± 0.019 | 0.83 ± 0.0095 | 0.717 ± 0.01 | 0.301 ± 0.018 | 0.201 ± 0.017
7 | CC(C)[C@H](C(=O)Nc1ccc(C(=O)NO)cc1)c1ccccc1 | 0.752 ± 0.021 | 0.00258 ± 0.00047 | 0.897 ± 0.021 | 0.00754 ± 0.0016 | 0.172 ± 0.0081 | 0.00052 ± 0.00049
8 | C#C[C@]1(OC(C)=O)CC[C@H]2[C@@H]3CCC4=C[C@@H](OC(C)=O)CC[C@@H]4[C@H]3CC[C@@]21C [Ethynodiol diacetate] | 1.023 ± 0.0058 | 1.027 ± 0.0058 | 1.03 | 1.027 ± 0.0058 | 1 ± 0.0087 | 0.9947 ± 0.005
9 | CC(C)CCN1c2nc(Nc3cc(F)c(O)c(F)c3)ncc2N(C)C(=O)C1C (stereo not drawn) | 1.02 ± 0.017 | 1.033 ± 0.0058 | 1.02 ± 0.011 | 0.958 ± 0.013 | 1.02 | 0.899 ± 0.02
10 | O=C1NC(=O)/C(=C/c2ccc(-c3ccc(F)cc3O)o2)S1 | 0.991 ± 0.016 | 1.01 ± 0.01 | 1 ± 0.019 | 0.955 ± 0.039 | 1.003 ± 0.0064 | 1.02 ± 0.01
11 | Cc1cnc(Nc2ccc(N3CCN(C)CC3)cc2)nc1Nc1cccc(S(=O)(=O)NC(C)(C)C)c1 | 0.767 ± 0.068 | 0.425 ± 0.093 | 0.815 ± 0.082 | 0.562 ± 0.13 | 0.923 ± 0.041 | 0.138 ± 0.042
12 | CCCCC(=O)OCC(=O)[C@]1(O)Cc2c(O)c3c(c(O)c2[C@@H](O[C@H]2C[C@H](NC(=O)C(F)(F)F)[C@H](O)[C@H](C)O2)C1)C(=O)c1c(OC)cccc1C3=O [Valrubicin] | 0.665 ± 0.04 | 0.868 ± 0.016 | 0.973 ± 0.016 | 0.982 ± 0.017 | 0.228 ± 0.017 | 0.374 ± 0.0045
13 | COc1ccc(CCN(C)CCc2ccc(OC)c(OC)c2)cc1OC [YS-035 hydrochloride] | 1.013 ± 0.0058 | 1.02 ± 0.015 | 1.01 ± 0.023 | 1.023 ± 0.0058 | 1.007 ± 0.0058 | 1.01 ± 0.012
